Laboratory results reported in the antibiotic and cytotoxicity screens of Wong et al. (2023).
Some of the results follow.

Tests used:
HSkMC = human skeletal muscle cells; experiment: cytotoxicity call (relative viability < 0.9); details: 10 µM
HepG2 = experiment: cytotoxicity call (relative viability < 0.9); details: 10 µM
S. aureus RN4220 = experiment: growth inhibition call (relative growth <= 0.2); details: 50 µM

Compound: C[C@H](CO)N1C[C@H](C)[C@H](CN(C)C(=O)N[C@H](C)c2ccccc2)OCc2ccccc2-c2c(n(C)c3ccccc23)C1=O
- cytotoxicity call (HSkMC): inactive
- cytotoxicity call (HepG2): inactive
- growth inhibition call (S. aureus RN4220): inactive

Compound: C[C@H]1CN([C@@H](C)CO)C(=O)Cc2cc(NS(=O)(=O)c3cn(C)cn3)ccc2O[C@H]1CN(C)C(=O)Nc1ccccc1
- cytotoxicity call (HSkMC): inactive
- cytotoxicity call (HepG2): inactive
- growth inhibition call (S. aureus RN4220): inactive

Compound: COc1cccc(C#Cc2ccc3c(c2)O[C@@H](CN(C)C(C)=O)[C@H](C)CN([C@H](C)CO)S3(=O)=O)c1
- cytotoxicity call (HSkMC): inactive
- cytotoxicity call (HepG2): inactive
- growth inhibition call (S. aureus RN4220): inactive

Compound: Cc1ccc(S(=O)(=O)Nc2ccc3c(c2)C(=O)N([C@@H](C)CO)C[C@H](C)[C@@H](CN(C)Cc2ccc(C(F)(F)F)cc2)O3)cc1
- cytotoxicity call (HSkMC): inactive
- cytotoxicity call (HepG2): inactive
- growth inhibition call (S. aureus RN4220): inactive

Compound: CCOC(=O)[C@H](Cc1ccccc1)NC(=O)c1cc(Cl)c(OCCN2CCN(C)CC2)c(Cl)c1O
- cytotoxicity call (HSkMC): inactive
- cytotoxicity call (HepG2): inactive
- growth inhibition call (S. aureus RN4220): inactive

Compound: CCC(=O)N1CCO[C@]2(COCCN(CC(=O)NC)C2)C1
- cytotoxicity call (HSkMC): inactive
- cytotoxicity call (HepG2): inactive
- growth inhibition call (S. aureus RN4220): inactive

Compound: C[C@@H]1CCCCO[C@@H](CN(C)S(=O)(=O)c2ccccc2)[C@H](C)CN([C@H](C)CO)C(=O)c2cc(NC(=O)Nc3ccc4c(c3)OCO4)ccc2O1
- cytotoxicity call (HSkMC): inactive
- cytotoxicity call (HepG2): inactive
- growth inhibition call (S. aureus RN4220): inactive

Compound: O=C(C[C@H]1C[C@H]2c3cc(NC(=O)Nc4ccccc4F)ccc3O[C@H]2[C@@H](CO)O1)NCc1ccc(Oc2ccccc2)cc1
- cytotoxicity call (HSkMC): active
- cytotoxicity call (HepG2): inactive
- growth inhibition call (S. aureus RN4220): inactive

Compound: C[C@@H]1CCCCO[C@H](CN(C)S(=O)(=O)c2ccc(Cl)cc2)[C@@H](C)CN([C@H](C)CO)C(=O)c2cc(NC(=O)Nc3ccc4c(c3)OCO4)ccc2O1
- cytotoxicity call (HSkMC): inactive
- cytotoxicity call (HepG2): inactive
- growth inhibition call (S. aureus RN4220): inactive
